Results reported in the supplement of paper PMC4967469.
The IC50 comes from the fitted curve, where viability falls to half of the control; a fit beyond the top or the lowest dose is shown as a bound at that dose. For AUC the same curve is integrated over the 256-fold range of doses and scaled to a fraction; it is 1 without any effect and falls as sensitivity rises. For some of these results: Where the top dose is marked as inferred, it is not printed in the source and was worked back from the curve model.

Assays:
[1] = compound: CC(C)(C)c1nc(-c2cccc(NS(=O)(=O)c3c(F)cccc3F)c2F)c(-c2ccnc(N)n2)s1 [Dabrafenib]; assay: Viability of human cancer cell lines after 72 h of drug (GDSC screen); details: top dose 10 µM
Procedure: (§1)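 Human cancer cell lines in 384-well plates, medium with 10% serum, drug for 72 h over a 256-fold dose range (nine 2-fold or five 4-fold steps up to the top dose). Adherent lines were fixed and stained with the nucleic acid dye Syto60, suspension lines read with resazurin; signal relative to control wells, capped at 0 and 100%. One two-parameter sigmoid per drug and line, fitted in a mixed model over all curves with the slope shared within a line.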

[2] = compound: CCc1c2c(nc3ccc(O)cc13)-c1cc3c(c(=O)n1C2)COC(=O)[C@]3(O)CC [SN-38]; assay: as above; details: top dose 0.05 µM; top dose inferred
Procedure: as §1

Cell Line | AUC [1] | IC50 [1] [nM] | AUC [2] | IC50 [2] [nM]
NCI-H2030 (lung adenocarcinoma, adherent) | 0.928 | > 10000 | 0.724 | 14.9
NCI-H2066 (small cell lung carcinoma, adherent) | 0.972 | > 10000 | 0.968 | > 50
NCI-H2085 (lung adenocarcinoma, adherent) | 0.971 | > 10000 | 0.95 | > 50
NCI-H2170 (lung squamous cell carcinoma, adherent) | 0.984 | > 10000 | 0.731 | 14.7
NUGC-3 (stomach, adherent) | 0.929 | > 10000 | 0.466 | 2.49
OAW-28 (ovary, adherent) | 0.98 | > 10000 | 0.521 | 3.61
OSC-19 (head and neck, adherent) | 0.969 | > 10000 | 0.755 | 17.5
OVCAR-3 (ovary, adherent) | 0.983 | > 10000 | 0.612 | 6.56
PANC-10-05 (pancreas, adherent) | 0.958 | > 10000 | 0.755 | 21.5
PC-3 (prostate, adherent) | 0.981 | > 10000 | 0.73 | 16.5
PCI-38 (head and neck, adherent) | 0.965 | > 10000 | 0.813 | 27.1
RD (rhabdomyosarcoma, adherent) | 0.918 | > 10000 | 0.737 | 16.1
RERF-GC-1B (stomach, adherent) | 0.982 | > 10000 | 0.717 | 14
RS4-11 (leukaemia, suspension) | 0.96 | > 10000 | 0.49 | 2.95
RT-112 (bladder, adherent) | 0.945 | > 10000 | 0.777 | 21.6
SCC-15 (head and neck, adherent) | 0.882 | > 10000 | 0.644 | 9
SK-CO-1 (large intestine, adherent) | 0.942 | > 10000 | 0.334 | 1.11
SK-LU-1 (lung adenocarcinoma, adherent) | 0.882 | > 10000 | 0.601 | 6.38
SKM-1 (haematopoietic neoplasm, suspension) | 0.88 | > 10000 | 0.607 | 6.35

Cell Line | AUC [1] | IC50 [1] [nM] | AUC [2] | IC50 [2] [nM]
SN12C (kidney, adherent) | 0.87 | > 10000 | 0.582 | 5.39
SNU-398 (liver, adherent) | 0.967 | > 10000 | 0.757 | 17.9
SNU-1040 (large intestine, adherent) | 0.959 | > 10000 | 0.977 | > 50
SU-DHL-8 (B-cell lymphoma, suspension) | 0.983 | > 10000 | 0.821 | 26.3
SU-DHL-10 (B-cell lymphoma, suspension) | 0.998 | > 10000 | 0.834 | 20.4
SW156 (kidney, adherent) | 0.887 | > 10000 | 0.748 | 17.7
SW837 (large intestine, adherent) | 0.98 | > 10000 | 0.87 | > 50
SW872 (soft tissue, adherent) | 0.2 | 90.8 | 0.571 | 4.8
SW900 (lung squamous cell carcinoma, adherent) | 0.977 | > 10000 | 0.777 | 23.4
SW1088 (glioma, adherent) | 0.936 | > 10000 | 0.793 | 30.7
SW1116 (large intestine, adherent) | 0.93 | > 10000 | 0.944 | > 50
SW1463 (large intestine, adherent) | 0.946 | > 10000 | 0.873 | > 50
TC-71 (Ewing sarcoma, adherent) | 0.963 | > 10000 | 0.431 | 2.1
TCCSUP (bladder, adherent) | 0.982 | > 10000 | 0.793 | 26.5
TE-10 (oesophagus, adherent) | 0.973 | > 10000 | 0.58 | 5.14
TGBC24TKB (biliary tract, adherent) | 0.989 | > 10000 | 0.915 | > 50
U031 (kidney, adherent) | 0.789 | 4580 | 0.356 | 1.23
U-2-OS (osteosarcoma, adherent) | 0.979 | > 10000 | 0.713 | 13.3
